Measurements published in PubChem BioAssay AID2546 (National Center for Advancing Translational Sciences (NCATS), 2010).
The whole screen tested about 310,000 compounds, of which about 11,000 (3.5%) were called active. The inconclusive results got no clear call from the source; some entries with a clear call stand among them for comparison. Calls follow the shape of the dose curve; as a rule, active = well fitted inhibition curve with a large enough effect; inconclusive = small, poorly fitted or top-dose-only effect, or effect the other way; inactive = flat fitted curve, though single readings scatter. Potencies of inconclusive entries are left out as doubtful fits.

assay: VP16 counterscreen qHTS for inhibitors of ROR gamma transcriptional activity; settings: Drosophila S2 Gal4-VP16 UAS-luciferase, luminescence, 20 h; series mostly up to 53.6 µM;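 also: Gal4-VP16 expression switched on by copper sulfate through the metallothionein promoter; nearly all actives have a fitted effect of over 50% in size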
Potency is read from the fitted curve at half-maximal effect; tags tell the direction and shape of the fitted curve.

SMILES | Potency
O=C(Nc1ccccc1)c1ccc[nH]1 | inactive
Cc1[nH]n2c(=O)cc(C(C)(C)C)nc2c1-c1ccccc1 | active: 3.16 µM
COc1cc(Cl)cc2c1Sc1ccccc1/C2=C/CCN(C)C | inactive
COc1ccc(C(=O)N/N=C/c2ccc(OC)c(CSc3ccccn3)c2)cc1 | inconclusive [inhibitor, partial curve]
CN(C)S(=O)(=O)c1cccc(NC(=O)C2Cc3ccccc3CN2C(=O)c2ccco2)c1 (centres undefined) | inconclusive [activator, single point]
CCOc1ccc(-n2c(=S)sc3c(=O)[nH]c(SCC(=O)C(C)(C)C)nc32)cc1 | inactive
COC(=O)C1=C[C@@H](C(=O)OC)[C@@H]2C3=C(C(=O)C2(C)C)[C@H](c2ccccc2)[C@@H]2C(=O)N(c4ccccc4)C(=O)[C@@H]2[C@@H]3C1 | inactive
O=C(Nc1ccc(C2CC2(Cl)Cl)cc1)c1cccc([N+](=O)[O-])c1 (centres undefined) | inconclusive [inhibitor, single point]
Cc1cc(/C=C(/C#N)C(=O)Nc2ccccc2)c(C)n1-c1cccnc1 | inactive
Cc1ccc(O)c(C(=O)c2cnn(C(=O)COc3ccc(Cl)cc3)c2)c1 | inconclusive [inhibitor, single point]
Cc1ccc2c(Cl)c(C)c(N3CCCCC3)nc2n1 | inconclusive [inhibitor, single point]
COC(=O)CCCC(=O)Nc1c(F)c(F)c(F)c(F)c1F | inactive
CCOC(=O)c1sc(=NC(=O)c2c(F)cccc2F)n(C)c1C | inactive
O=C(Nc1ncc(S(=O)(=O)c2ccc([N+](=O)[O-])cc2)s1)c1ccc2ccccc2c1 | inconclusive [inhibitor, single point]
COc1ccccc1NC(=O)Cn1nnc(-c2ccccc2NC(=O)c2ccco2)n1 | inconclusive [activator, partial curve]
Cc1ccc(SC(CC(=O)c2ccc(C)cc2)C(=O)O)cc1 (centres undefined) | inconclusive [inhibitor, single point]
C=CCSc1nc2sc3c(c2c(=O)n1CC)CCc1ccccc1-3 | inconclusive [inhibitor, single point]
COC(=O)C(c1ccccc1Cl)N1CCc2sccc2C1 (centres undefined) | inconclusive [inhibitor, single point]
Cc1nc(NC(=O)C2CC2)sc1C(=O)Nc1ccccc1Cl | inconclusive [activator, partial curve]
O=C(COC(=O)c1ccccc1Nc1ccccc1)Nc1ccccc1 | inconclusive [inhibitor, single point]
Fc1ccccc1/C=C1\CCCC2=C1NC(=S)NC2c1ccccc1F (centres undefined) | active: 11.2 µM
O=C(NCCC1=CCCCC1)c1ccc(F)cc1 | active: 11.2 µM
N#C/C(=C/c1ccc(N2CCOCC2)o1)c1ccc(Cl)cc1 | active: 10 µM
O=Cc1cn(CCC(=O)O)nc1-c1cc2ccccc2o1 | inconclusive [inhibitor, partial curve]
Cc1sc2ncnc(NCc3ccco3)c2c1C | active: 20 µM

SMILES | Potency
CCCCNC(=O)Nc1nnc(-c2ccc(OCC)cc2)o1 | active: 5.62 µM
COCCn1c(-c2ccccc2)cnc1SCC(=O)Nc1cccc2ccccc12 | inconclusive [inhibitor, partial curve]
NC(=S)N/N=C/c1ccc(-c2cc(Cl)c(Cl)cc2Cl)o1 | active: 1.12 µM
CCc1ccc(OCC(=O)NC(NC(=S)Nc2ccccc2C)C(Cl)(Cl)Cl)cc1 (centres undefined) | active: 5.01 µM
COc1cc(C2NC(=S)NC3=C2CCc2ccccc23)cc(OC)c1OC (centres undefined) | active: 10 µM
CCN1C=CC(=C2C(=O)c3ccccc3C2=O)C=C1 | active: 0.316 µM
CCN(CC)c1nc(OCCNC(=O)Nc2ccccc2)nc(N(CC)CC)n1 | inactive
Cc1nn(C)c(C(=O)NC(=S)Nc2ccccc2O)c1Cl | active: 3.16 µM
O=C1OC(/C(=C\Nc2ccc(F)cc2F)[N+](=O)[O-])c2ccccc21 (centres undefined) | inconclusive [inhibitor, single point]
CCOc1ccc(C(=S)N2CCCC2)c(OCC)c1 | inconclusive [inhibitor, single point]
CCC(C)c1ccc(C(C)NC(=S)NC2CCCCC2)cc1 (centres undefined) | active: 2 µM
Cc1ccc(-c2ccc(/C=N/NC(=S)Nc3ccccc3)o2)cc1[N+](=O)[O-] | active: 12.6 µM
COc1cccc(Cn2nnc(C(=O)Nc3cc(C)ccc3OC)c2N)c1 | inactive
C=CCNC(=S)Nc1nc2c(cc1C(=O)OCC)CCCC2 | active: 8.91 µM
O=C(CCCn1c(=S)[nH]c2ccc(Br)cc2c1=O)N1CCN(c2ccccn2)CC1 | inconclusive [inhibitor, single point]
O=C1N=c2ccccc2=C1c1c(O)[nH]c2c(C(F)(F)F)cccc12 | inconclusive [inhibitor, single point]
O=C(N/N=C/c1c[nH]c2ccccc12)c1cccc(Cl)c1 | inconclusive [inhibitor, single point]
CN(C)c1ccc(C(=O)/C=C/c2ccco2)cc1 | inconclusive [inhibitor, single point]
CCCC(=O)Nc1ccc(NC(=O)c2ccco2)c(OC)c1 | inconclusive [activator, single point]
OCCNc1c2ccccc2nc2ccccc12 | inconclusive [inhibitor, single point]
O=C(CSc1nnc(-c2ccccc2F)n1C1CC1)Nc1cccnc1Cl | active: 39.8 µM
Nc1nc(Nc2cccc(Cl)c2)n[nH]1 | inconclusive [activator, full curve]
O=C(NC1=NC2CCCCC2N1)c1ccccc1 (centres undefined) | inconclusive [inhibitor, full curve]
Cn1nnc(NC(=S)NC(=O)c2ccccc2)n1 | inconclusive [inhibitor, partial curve, poor fit]
CCN(CC)S(=O)(=O)c1cc(C(=O)OCC(=O)c2ccc3c(c2)NC(=O)CO3)ccc1Cl | inconclusive [inhibitor, single point]

SMILES | Potency
Cc1ccc(N(C(=O)CCl)C(C(=O)NC2CCCCC2)c2cccnc2)cc1C (centres undefined) | inconclusive [inhibitor, partial curve]
C=CCNC(=O)C(=O)c1c(-c2ccccc2)[nH]c2ccccc12 | inactive
CCOC(=O)c1ccsc1NC(=O)c1ccco1 | inconclusive [inhibitor, partial curve]
Cc1onc(-c2ccccc2)c1C(=O)Nc1nnc(N2CCCCCC2)s1 | active: 0.355 µM
COc1ccc2cc(C(=O)NC3CCCCC3)c(=O)oc2c1 | inconclusive [activator, partial curve, poor fit]
CC(C)OC(=O)n1c(=S)oc2ccccc21 | inconclusive [inhibitor, partial curve]
COc1ccccc1/C=C/C(=O)NC(=S)N1CCN(C)CC1 | active: 15.8 µM
Fc1ccc(F)c(C2=NNC(=Nc3ccccc3F)SC2)c1 | inconclusive [inhibitor, single point]
NC(=O)CC(NC(=O)c1ccccc1)c1ccc(NC2CCCCCCC2)c([N+](=O)[O-])c1 (centres undefined) | inconclusive [inhibitor, single point]
O=C(Cc1ccc([N+](=O)[O-])cc1)N/N=C/c1ccc([N+](=O)[O-])o1 | inconclusive [inhibitor, single point]
COC(=O)c1oc2ccccc2c1N | inconclusive [inhibitor, partial curve]
COc1ccc(-c2noc(C3CCCN(C(=O)c4cccc(F)c4)C3)n2)cc1 (centres undefined) | inactive
Fc1ccc(Cn2c(SCc3ccc(F)c(F)c3)nnc2C(F)(F)F)cc1 | inconclusive [inhibitor, single point]
COc1ccc(Br)cc1C(=O)NC(=S)Nc1ccc(CN2CCOCC2)cc1 | inconclusive [inhibitor, single point]
CNC(=O)c1ccc(NC(=O)C2CCN(c3ncnc4sc(C)c(C)c34)CC2)cc1 | inactive
O=C(CSCc1c(Cl)cccc1Cl)NCc1ccco1 | inconclusive [activator, partial curve]
O=CNNC(=O)c1cccc([N+](=O)[O-])c1 | inactive
C[C@@H]1CC[C@]2(C(=O)O)CC[C@]3(C)C(=CCC4[C@@]5(C)C[C@@H](O)[C@H](O)[C@@](C)(CO)C5[C@H](O)C[C@]43C)C2[C@H]1C (some centres undefined) | inconclusive [inhibitor, single point]
S=C(NCc1cccnc1)Nc1ccc(Cl)c(Cl)c1 | inconclusive [inhibitor, single point]
COc1ccc(C2CC(c3ccccc3)=NN2C(=O)CCC(=O)O)cc1 (centres undefined) | inconclusive [inhibitor, partial curve]
CN(C)c1ccc(N=Nc2ccc(C(=O)O)cc2)cc1 | active: 1.41 µM
CCO[C@H]1OC(C(=O)Nc2ccccc2)=C[C@@H](c2ccc(C(F)(F)F)cc2)[C@@H]1CCCO | inconclusive [inhibitor, single point]
COc1ccc(C(=O)/C=C/Nc2ccccn2)cc1 | active: 3.55 µM
c1ccc(-c2nccc(-c3ccc4c(c3)OCO4)n2)cc1 | inconclusive [activator, full curve, poor fit]
